Laboratory results taken from the supplement of paper PMC12217912.
The other results are listed elsewhere or left out. The full chains were built here from the parent and the listed change. Values near 0.05 are background.

B1: TEV protease; numbered along this chain (parent)
chain: MGESLFKGPRDYNPISSSICHLTNESDGHTTSLYGIGFGPFIITNKHLFRRNNGTLVVQSLHGVFKVKDTTTLQQHLVDGRDMIIIRMPKDFPPFPQKLKFREPQREERICLVTTNFQTKSMSSMVSDTSCTFPSGDGIFWKHWIQTKDGQCGSPLVSTRDGFIVGIHSASNFTNTNNYFTSVPKNFMELLTNQEAQQWVSGWRLNADSVLWGGHKVFMVKPEEPFQPVKEATQL

Variants of: B1
Experiment: raw area under fraction-flipped curve 0-4 h after induction (AUC4h, not background-subtracted), DNA-recorder readout of cleavage of the substrate (dimensionless); higher = more cleavage of the substrate by the protease variant
Conditions: temperature: 34 °C; time window: 0-4 h after rhamnose induction
Method: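 In vivo DNA recorder in E. coli TOP10(DE3) ΔrhaA at 34 °C. Each TEVp single-site mutant (parent TEVp 0) is paired with a single-site variant of the 7-mer TEVs (canonical ENLYFQ|S). The substrate sits between flexible linkers in a Bxb1-sfGFP-TEVs-SsrA fusion, so cleavage stabilises Bxb1 and speeds flipping of a recombination array, read by NGS. The value is the raw area under the fraction-flipped curve over 0-4 h after rhamnose induction (AUC4h), with ≥20 reads per time point. It is not background-subtracted; inactive controls average about 0.047.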
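Further: Bxb1 expression induced with 0.2% (w/v) L-rhamnose at OD600 near 0.5, cultures sampled hourly, flipped fraction per protease–substrate barcode pair counted by paired-end Illumina sequencing.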

Variant | area with substrate ENLYAQS | area with substrate ENLYDQS | area with substrate ENLYEQS | area with substrate ENLYGQS | area with substrate ENLYIQS | area with substrate ENLYKQS | area with substrate ENLYMQS | area with substrate ENLYNQS | area with substrate ENLYPQS | area with substrate ENLYQQS | area with substrate ENLYSQS | area with substrate ENLYVQS | area with substrate ENLYWQS | area with substrate ENLYYQS | area with substrate ENLYCQS | area with substrate ENLYHQS | area with substrate ENLYLQS | area with substrate ENLYRQS | area with substrate ENLYTQS
MGESLFKGPRDYNPISSSICHLTNESDGHTTSLYGIGFGPFIITNKHLFRRNNGTLVVQSLHGVFKVKDTTTLQQHLVDGRDMIIIRMPKDFPPFPQKLKFREPQREERICLVTTNFQTKSMSSMVSDTSCTFPSGDGIFWKHWIQTKDGQCGSPLVSTRDGFIVGIHSASNFTNTNNYFTSVPKNFMELLTNQEAQQWVSGWRLNADSVLWGGHKVFMVTPEEPFQPVKEATQL [K221T] | 0.0241 | 0.0476 | 0.0677 | 0.0629 | 0.0625 | 0.0587 | 0.0638 | 0.0595 | 0.0625 | 0.0775 | 0.0847 | 0.104 | 0.0583 | 0.0672 | – | – | – | – | –
MGESLFKGPRDYNPISSSICHLTNESDGHTTSLYGIGFGPFIITNKHLFRRNNGTLVVQSLHGVFKVKDTTTLQQHLVDGRDMIIIRMPKDFPPFPQKLKFREPQREERICLVTTNFQTKSMSSMVSDTSCTFPSGDGIFWKHWIQTKDGQCGSPLVSTRDGFIVGIHSASNFTNTNNYFTSVPKNFMELLTNQEAQYWVSGWRLNADSVLWGGHKVFMVKPEEPFQPVKEATQL [Q198Y] | 0.0604 | 0.0468 | 0.0695 | 0.0745 | 0.0886 | 0.0609 | 0.0634 | 0.069 | 0.0803 | 0.0648 | 0.0622 | 0.116 | – | 0.0545 | 0.0662 | 0.0597 | 0.0711 | 0.0605 | –
MGESLFKGPRDYNPISSSICHLTNESDGHTTSLYGIGFGPFIITNKHLFRRNNGTLVVQSLHGVFKVKDTTTLQQHLVDGRDMIIIRMPKDFPPFPQKLKFREPQREERICLLTTNFQTKSMSSMVSDTSCTFPSGDGIFWKHWIQTKDGQCGSPLVSTRDGFIVGIHSASNFTNTNNYFTSVPKNFMELLTNQEAQQWVSGWRLNADSVLWGGHKVFMVKPEEPFQPVKEATQL [V113L] | 0.11 | 0.0728 | 0.0662 | 0.0826 | 0.122 | 0.0728 | 0.0612 | 0.0659 | 0.0873 | – | 0.0705 | 0.115 | 0.0813 | – | 0.0852 | 0.0677 | 0.114 | 0.0636 | –
MGESLFKGPRDYNPISSSICHLTNESDGHTTSLYGIGFGPFIITNKHLFRRNNGTLVVQSLHGVFKVKDTTTLQQHLVDGRDMIIIRMPKDFPPFPQKLKFREPQREERICLVTTNFQTKSMSSMVSDTSCTFPSGDGIFWKHWIQTKDGQCGSPLVSTRDGFIVGIHSASNFTNTNNYFTSVPKNFMELITNQEAQQWVSGWRLNADSVLWGGHKVFMVKPEEPFQPVKEATQL [L191I] | 0.062 | 0.0749 | – | 0.0676 | – | – | 0.0752 | – | 0.057 | – | – | 0.12 | 0.0505 | 0.0619 | – | – | 0.0837 | 0.0353 | 0.07
MGESLFKGPRDYNPISSSICHLTNESDGHTTSLYGIGFGPFIITNKHLFRRMNGTLVVQSLHGVFKVKDTTTLQQHLVDGRDMIIIRMPKDFPPFPQKLKFREPQREERICLVTTNFQTKSMSSMVSDTSCTFPSGDGIFWKHWIQTKDGQCGSPLVSTRDGFIVGIHSASNFTNTNNYFTSVPKNFMELLTNQEAQQWVSGWRLNADSVLWGGHKVFMVKPEEPFQPVKEATQL [N52M] | 0.0706 | 0.0512 | 0.067 | – | 0.0812 | 0.0106 | – | 0.058 | – | – | – | – | – | – | – | 0.062 | 0.0612 | 0.0653 | –
MGESLFKGPRDYNPISSSICHLTNESDGHTTSLYGIGFGPFIITNKHLFRRNNGTLVVQSLHGVFKVKDTTTLQQHLVDGRDMIIIRMPKDFPPFPQKLKFREPQREEPICLVTTNFQTKSMSSMVSDTSCTFPSGDGIFWKHWIQTKDGQCGSPLVSTRDGFIVGIHSASNFTNTNNYFTSVPKNFMELLTNQEAQQWVSGWRLNADSVLWGGHKVFMVKPEEPFQPVKEATQL [R109P] | 0.0854 | 0.0618 | 0.0684 | 0.0626 | 0.132 | 0.0647 | 0.0755 | 0.0657 | 0.0732 | 0.0552 | – | – | 0.073 | 0.0667 | 0.0863 | 0.0682 | 0.0701 | 0.0579 | 0.0892
MGESLFKGPRDYNPISSSICHLTNESDGHTTSLYGIGFGPFIITNKHLFRRNNGTLVVQSLHGVFKVKDTTTLQQHLVDGRDMIIIRMPKDFPPFPQKLKFREPQIEERICLVTTNFQTKSMSSMVSDTSCTFPSGDGIFWKHWIQTKDGQCGSPLVSTRDGFIVGIHSASNFTNTNNYFTSVPKNFMELLTNQEAQQWVSGWRLNADSVLWGGHKVFMVKPEEPFQPVKEATQL [R106I] | 0.0649 | – | 0.0751 | 0.0585 | – | 0.0534 | – | – | 0.101 | – | 0.0687 | 0.0954 | 0.0883 | 0.0677 | – | 0.0646 | 0.0778 | 0.0644 | 0.0787
MGESLFKGPRDYNPISSSICHLTNESDSHTTSLYGIGFGPFIITNKHLFRRNNGTLVVQSLHGVFKVKDTTTLQQHLVDGRDMIIIRMPKDFPPFPQKLKFREPQREERICLVTTNFQTKSMSSMVSDTSCTFPSGDGIFWKHWIQTKDGQCGSPLVSTRDGFIVGIHSASNFTNTNNYFTSVPKNFMELLTNQEAQQWVSGWRLNADSVLWGGHKVFMVKPEEPFQPVKEATQL [G28S] | 0.0627 | 0.0578 | – | 0.0624 | – | 0.0664 | 0.0582 | 0.0675 | 0.0748 | – | 0.0766 | 0.103 | 0.0706 | – | – | 0.0588 | – | 0.066 | –
MGESLFKGPRDYNPISSSICHLTNESDGHTTSLYGIGFGPFIITNKHLFRRNNGTLVVQSLHGVFKVKDTTTLQQHLVDGRDMIIIRMPKDFPPFPQKLKFREPQREERICLVTTNFQTKSMSSMVSDTSCTFPSGDGIFWKHWIQTKDGQCGSPLVSTRDGFIVGIHSASNFTNTNNYFTSVPKNFLELLTNQEAQQWVSGWRLNADSVLWGGHKVFMVKPEEPFQPVKEATQL [M188L] | 0.0881 | 0.0599 | 0.0733 | 0.0899 | 0.143 | 0.0659 | 0.0543 | 0.0675 | – | 0.0703 | 0.0687 | – | 0.0796 | 0.036 | 0.0906 | – | – | – | –
